Data taken from paper PMC9572397, “Garcinia cambogia Phenolics as Potent Anti-COVID-19 Agents: Phytochemical Profiling, Biological Activities, and Molecular Docking” (Plants, 2022).

How the values were obtained:
[1] = tested on: Human Coronavirus (COVID-19)
[2] = tested on: Human Coronavirus (COVID-19); test: microbe, parasite or virus in culture; conditions: unidentified human coronavirus; for log reduction at 1 µM / log reduction at 10 µM: read-out: Log Difference
[3] = read-out: Reduction %, Table S3, 1 µM
[4] = read-out: Reduction %, Table S3, 10 µM
[5] = read-out: Reduction %, Table S4

For `O=c1cc(-c2ccc(O)cc2)oc2c([C@@H]3O[C@H](CO)[C@@H](O)[C@H](O)[C@H]3O)c(O)cc(O)c12` [Compound 3, vitexin], the “Viral Titer IU/ml” value ([1]; Table S3, 1 µM) was 1256387.904 IU/ml, the “Viral Titer Log” value ([1]; Table S3, 1 µM) was 6.099 and the “Viral Titer IU/ml” value ([1]; Table S3, 10 µM) was 691102.3995 IU/ml. For the same molecule, the “Viral Titer Log” value ([1]; Table S3, 10 µM) was 5.84, the inhibition at 1 µM [2] was 20.5% and the inhibition at 10 µM [2] was 56.3%. For the same molecule, the log reduction at 1 µM [2] was 0.0996, the log reduction at 10 µM [2] was 0.359 and the inhibition at 1 µM ([2]; read-out: Reduction %) was 1.61%. For the same molecule, the inhibition at 10 µM ([2]; read-out: Reduction %) was 5.79%.
With `C[C@@H]1O[C@@H](O[C@H]2[C@H](Oc3cc(O)c4c(c3)O[C@H](c3ccc(O)cc3)CC4=O)O[C@H](CO)[C@@H](O)[C@@H]2O)[C@H](O)[C@H](O)[C@H]1O` [Compound 5, naringin] the “Viral Titer IU/ml” value ([1]; Table S3, 1 µM) was 135906.3252 IU/ml, the “Viral Titer Log” value ([1]; Table S3, 1 µM) was 5.133 and the “Viral Titer IU/ml” value ([1]; Table S3, 10 µM) was 36035.25597 IU/ml. The “Viral Titer Log” value ([1]; Table S3, 10 µM) was 4.557, the Log diff ([1]; Table S4, 0.001 µM) was -0.1056 and the “Viral Titer IU/ml” value ([1]; Table S4, 0.001 µM) was 1034210.374 IU/ml. The “Viral Titer Log” value ([1]; Table S4, 0.001 µM) was 6.015, the Log diff ([1]; Table S4, 0.01 µM) was -0.2354 and the “Viral Titer IU/ml” value ([1]; Table S4, 0.01 µM) was 767040.3613 IU/ml. For the same molecule, the “Viral Titer Log” value ([1]; Table S4, 0.01 µM) was 5.885, the Log diff ([1]; Table S4, 0.1 µM) was -0.6248 and the “Viral Titer IU/ml” value ([1]; Table S4, 0.1 µM) was 312929.2783 IU/ml. The “Viral Titer Log” value ([1]; Table S4, 0.1 µM) was 5.495, the Log diff ([1]; Table S4, 1 µM) was -0.987 and the “Viral Titer IU/ml” value ([1]; Table S4, 1 µM) was 135906.3252 IU/ml. For the same molecule, the “Viral Titer Log” value ([1]; Table S4, 1 µM) was 5.133, the Log diff ([1]; Table S4, 10 µM) was -1.564 and the “Viral Titer IU/ml” value ([1]; Table S4, 10 µM) was 36035.25597 IU/ml. The “Viral Titer Log” value ([1]; Table S4, 10 µM) was 4.557, the “inhibition activity of COVID-19 (in words)” value ([1]; two concentrations (1 mM and 10 μM), compared to the remdesivir positive standard) was “potent inhibition activity” and the inhibition at 1 µM ([2]; Table S3, 1 µM) was 91.4%. The inhibition at 10 µM ([2]; Table S3, 10 µM) was 97.7%, the inhibition at 0.001 µM ([2]; Table S4) was 21.6% and the inhibition at 0.01 µM ([2]; Table S4) was 41.8%. The inhibition at 0.1 µM ([2]; Table S4) was 76.3%, the inhibition at 1 µM ([2]; Table S4, 1 µM) was 89.7% and the inhibition at 10 µM ([2]; Table S4, 10 µM) was 97.3%. It also gave an EC50 ([2]; Table S4, Conc. column in µM) of 0.017 µM, a log reduction at 1 µM [2] of 1.07 and a log reduction at 10 µM [2] of 1.64. The inhibition at 1 µM [2, 3] was 17.2%, the inhibition at 10 µM [2, 4] was 26.5% and the inhibition at 0.001 µM [2, 5] was 1.73%. The inhibition at 0.01 µM [2, 5] was 3.85%, the inhibition at 0.1 µM [2, 5] was 10.2% and the inhibition at 1 µM ([2]; read-out: Reduction %, Table S4, 1 µM) was 16.1%. The inhibition at 10 µM ([2]; read-out: Reduction %, Table S4, 10 µM) was 25.5% and the EC50 ([2]; serial concentration 10, 1, 0.1, 0.01, 0.001 μM) was 0.0169 µM.
`O=C(O)/C=C/c1ccc(O)cc1` [Compound 7, p-coumaric acid] was tested, and the “Viral Titer IU/ml” value ([1]; Table S3, 1 µM) was 439893.1485 IU/ml, the “Viral Titer Log” value ([1]; Table S3, 1 µM) was 5.643 and the “Viral Titer IU/ml” value ([1]; Table S3, 10 µM) was 151891.6408 IU/ml. The “Viral Titer Log” value ([1]; Table S3, 10 µM) was 5.182, the inhibition at 1 µM ([2]; Table S3, 1 µM) was 72.2% and the inhibition at 10 µM ([2]; Table S3, 10 µM) was 90.4%. For the same molecule, the log reduction at 1 µM [2] was 0.555, the log reduction at 10 µM [2] was 1.02 and the inhibition at 1 µM [2, 3] was 8.96%. The inhibition at 10 µM [2, 4] was 16.4%.

Read-outs that look alike come from different tables or passages of the source.
